Measurements taken from paper PMC4336329 (PLoS ONE, 2015).
Out of some 310,000 compounds screened, about 2,200 (0.71%) showed an effect of 50% or more. Effects have a minus sign here. The list shows a part of the results.

Target: human ether-à-go-go-related gene (hERG) potassium channel (human, UniProt Q12809)
Test: primary screen, population patch clamp on CHO cells stably expressing hERG

human ether-à-go-go-related gene (hERG) potassium channel, sequence (Q12809 whole entry, looked up): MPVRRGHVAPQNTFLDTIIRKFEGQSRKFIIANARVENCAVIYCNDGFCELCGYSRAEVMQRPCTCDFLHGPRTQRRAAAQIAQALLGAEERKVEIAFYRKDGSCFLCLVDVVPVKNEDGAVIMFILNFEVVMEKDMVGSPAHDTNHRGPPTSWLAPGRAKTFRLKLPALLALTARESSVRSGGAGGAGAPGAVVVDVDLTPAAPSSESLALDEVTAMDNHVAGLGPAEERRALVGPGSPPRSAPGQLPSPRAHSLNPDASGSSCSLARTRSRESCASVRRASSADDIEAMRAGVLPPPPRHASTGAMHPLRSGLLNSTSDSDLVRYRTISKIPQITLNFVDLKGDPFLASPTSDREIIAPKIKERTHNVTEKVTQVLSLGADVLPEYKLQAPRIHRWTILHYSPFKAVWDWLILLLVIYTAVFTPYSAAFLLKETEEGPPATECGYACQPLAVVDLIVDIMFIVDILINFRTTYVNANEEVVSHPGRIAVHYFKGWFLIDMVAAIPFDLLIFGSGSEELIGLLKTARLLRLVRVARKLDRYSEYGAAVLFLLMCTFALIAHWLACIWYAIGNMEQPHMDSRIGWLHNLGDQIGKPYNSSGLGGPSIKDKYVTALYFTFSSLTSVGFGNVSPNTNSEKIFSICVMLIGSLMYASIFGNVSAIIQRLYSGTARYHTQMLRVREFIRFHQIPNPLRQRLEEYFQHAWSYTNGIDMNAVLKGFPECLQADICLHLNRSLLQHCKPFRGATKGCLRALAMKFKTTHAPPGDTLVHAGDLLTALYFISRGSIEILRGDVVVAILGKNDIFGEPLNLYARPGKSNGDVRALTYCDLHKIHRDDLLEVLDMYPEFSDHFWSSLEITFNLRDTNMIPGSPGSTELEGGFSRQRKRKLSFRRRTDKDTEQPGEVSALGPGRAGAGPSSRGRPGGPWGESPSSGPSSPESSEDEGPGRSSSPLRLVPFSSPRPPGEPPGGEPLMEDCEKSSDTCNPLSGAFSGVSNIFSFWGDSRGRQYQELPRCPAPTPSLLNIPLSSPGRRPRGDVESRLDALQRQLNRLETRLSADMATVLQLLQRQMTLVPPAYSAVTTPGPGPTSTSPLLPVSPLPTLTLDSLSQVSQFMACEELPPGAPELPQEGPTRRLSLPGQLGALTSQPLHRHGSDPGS

SMILES	hERG current change (%, negative = inhibition) at 1uM [%]
Cc1ccc(C(=O)COC(=O)c2cc(=O)[nH]c3ccccc23)cc1	8.3
O=C(NC1CCN(S(=O)(=O)c2ccc(F)cc2)CC1)c1cccnc1	-4.55
COc1ccc(C(=O)Nc2ccccc2C(N)=O)cc1	2.93
Cc1ccc(N=Nc2ccc(O)cc2)c(Br)c1	12.1
COc1cccc(NC(=O)C2CCN(S(=O)(=O)c3ccc4c(c3)NC(=O)C(C)S4)CC2)c1 (centres unmarked)	25.8
O=C(CSc1nc(O)c(Cc2ccccc2)c(=O)[nH]1)N1CCOCC1	-8.45
Cc1nc2ccccc2c(=O)n1NC(=O)Cc1ccc([N+](=O)[O-])cc1	-8.74
COc1ccc(S(=O)(=O)N2CCN(C)CC2)cc1C(=O)Nc1ccccc1	11.7
CCOc1ccc(-n2c(N)c(C(=O)NCc3cccnc3)sc2=S)cc1	12.1
Cc1cc(O)ccc1Nc1nc2ccccc2nc1Nc1ccc(O)cc1C	2.58
Cc1ccc(/C=N/NC(=O)c2cccs2)o1	7.85
O=C(c1ccc(=O)[nH]c1)N1CCN(S(=O)(=O)c2ccc(Cl)cc2)CC1	8.17
CCN(Cc1ccccc1)S(=O)(=O)c1ccc(C(=O)Nc2nnc(C3CC3)o2)cc1	12.3
CCN(CC)S(=O)(=O)c1ccc(N2CCCC2)c(NS(=O)(=O)c2ccc(F)cc2)c1	5.95
O=S(=O)(NCc1ccccn1)c1ccc(Cl)c(C(F)(F)F)c1	6.9
COc1ccc2nc(NC(=O)c3ccc(-n4nc(C)cc4C)cc3)sc2c1	13.5
COc1ccc(C(=O)NCC(=O)OCc2ccc(F)cc2)cc1	4.63
CSc1nc(-c2ccccc2)nn1S(=O)(=O)c1ccc(Cl)cc1	18.3
O=C(c1cccc(Br)c1)c1cn(-c2ccccc2)nc1C(=O)c1ccccc1	8.08
Cc1ccc(-n2nnnc2SCC(=O)NC2CCCc3ccccc32)cc1 (centres unmarked)	-4.36
CCN1C(=O)C2C(c3ccc(O)c(OC)c3)NC(C)(C(=O)OC)C2C1=O (centres unmarked)	10.2
CSc1n[nH]c(NCc2ccc(Cl)cc2)n1	7.8

SMILES	hERG current change (%, negative = inhibition) at 1uM [%]
CN1C(=O)[C@@H]2[C@H](C1=O)[C@@H]1C(=O)Nc3ccccc3C(=O)N1[C@@H]2c1cccc(Br)c1	-12.7
O=C(COC(=O)CCC(=O)c1ccc(Cl)cc1)NC1CC1	11.5
COc1ccc(NC(=O)C2CC(c3ccc(OC)c(OC)c3)=NO2)cc1OC (centres unmarked)	1.07
COCCNC(=O)C(NC(=O)C1CCC(C)CC1)C(C)C (centres unmarked)	8.56
Cc1cc(=O)[nH]c(Nc2ccc(C(=O)OC(C)C)cc2)n1	12.8
O=C(NN1CCCCC1)c1cnn2c(C(F)F)cc(-c3ccccc3)nc12	11.7
Cc1cccc(CCNC(=O)CCNC(=O)Cn2ccc3ccccc3c2=O)c1	14.3
COC(=O)c1ccc2ccccc2c1OC1OC(CO)C(O)C(O)C1NC(C)=O (centres unmarked)	12.2
CCCc1ccc(OCc2ccc(C(=O)N3CCN(c4ccccn4)CC3)o2)c(OC)c1	-13.6
CC(C)(C)n1nnnc1CN1CCN(C2CCCC2)CC1	3.93
CCN(CC)S(=O)(=O)c1ccc(N/N=C/c2ccc(O)cc2O)nc1	5.71
CC(C)(C)Nc1nc(SCC(=O)Nc2ccccc2)nc(N2CCOCC2)n1	14.7
Cc1cccnc1NC(=S)Nc1ccc(Cl)c(Cl)c1	6.21
COC(=O)c1cccc(NC(=O)c2ccc3c(c2)C(=O)N(CC2CCCO2)C3=O)c1 (centres unmarked)	-4.32
CCc1ccc2[nH]c(=O)c(C(c3nnnn3Cc3ccccc3)N3CCOCC3)cc2c1 (centres unmarked)	0.57
COc1ccc([N+](=O)[O-])cc1NC(=O)c1cccnc1	6.33
O=C(COC(=O)C1(c2ccc(F)cc2)CCCC1)NC1CC1	2.2
Cc1ccccc1N(C(=O)c1ccccn1)C(C(=O)NCc1ccccc1)c1ccncc1 (centres unmarked)	5.83
O=C(N/C(=C/c1cccnc1)C(=O)N1CCOCC1)c1ccco1	9.9
O=C(OCCc1cc2ccccc2c(=O)o1)c1ccccc1C(F)(F)F	9.46
Cn1cc(CN2CCC(n3nccc3NC(=O)c3ccccc3Cl)CC2)c2ccccc21	-47.6
O=C(N/N=C/c1ccco1)C(O)c1ccccc1 (centres unmarked)	8.68
